The target of test [1] is T1, human GPR20 (Homo sapiens, UniProt Q99678).
T1 construct: expressed in transfected cells; host or cells: 293T cells, transient, Lipofectamine 2000
T1 sequence (Q99678 1-358): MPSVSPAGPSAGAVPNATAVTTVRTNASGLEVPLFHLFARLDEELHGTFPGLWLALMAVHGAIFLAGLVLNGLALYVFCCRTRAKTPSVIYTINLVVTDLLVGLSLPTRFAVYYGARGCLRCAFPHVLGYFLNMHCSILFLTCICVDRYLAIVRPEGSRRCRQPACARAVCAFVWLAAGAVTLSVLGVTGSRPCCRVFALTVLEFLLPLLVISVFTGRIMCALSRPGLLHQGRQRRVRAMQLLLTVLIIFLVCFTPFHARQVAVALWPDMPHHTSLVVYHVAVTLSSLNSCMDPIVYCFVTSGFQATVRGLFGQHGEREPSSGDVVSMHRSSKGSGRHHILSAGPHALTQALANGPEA
The test can be described thus: Internalization activity of humanized anti-GPR20 antibodies with Hum-ZAP in HEK293 cells stably expressing GPR20-EGFP. The conditions noted are these: antibody 0.015 to 1.27 μg/mL, Hum-ZAP 1 μg/mL, 4 days. It is filed as cell-based.

The subject of another test is GIST-T1/GPR20 cells. The test is described as follows: Antitumor effect in subcutaneously GIST-T1/GPR20 cell-transplanted nude mouse models. It is filed as in vivo, BALB/c nude mice.
In test [2] the target is T1, human GPR20. The test is described as follows: Binding activity of humanized anti-GPR20 antibodies and antibody-drug conjugates by flow cytometry. The conditions noted are these: 293T cells transfected with pcDNA3.1-hGPR20; FIG. 25. (In general: Flow cytometry measures light scatter and fluorescence of single cells or particles in a stream.)
Where [3] appears, read: 1 mg/kg intravenously on Day 17, FIG. 31.

B1: h046-H5b/L2: humanized h046-H5b type heavy chain and humanized h046-L2 type light chain (antibody)
heavy: QVQLVQSGAEVKKPGASVKVSCKASGYTFTSYYISWIRQAPGQGLKYMGFINPGSGHTNYNEKFKGRVTITADKSSSTANMELSSLRSEDTAVYYCARGAGGFLRIITKFDYWGQGTLVTVSSASTKGPSVFPLAPSSKSTSGGTAALGCLVKDYFPEPVTVSWNSGALTSGVHTFPAVLQSSGLYSLSSVVTVPSSSLGTQTYICNVNHKPSNTKVDKRV[letters of human IgG1 Fc omitted]
light: DIQMTQSPSSLSASVGDRVTITCRASKSVSTYIHWYQQKPGKQPKLLIYSASNLESGVPSRFSGSGSGTDFTLTISSLQPEDFATYYCQQINELPYTFGQGTKVEIKRTVAAPSVFIFPPSDEQLKSGTASVVCLLNNFYPREAKVQWKVDNALQSGNSQESVTEQDSKDSTYSLSSTLTLSKADYEKHKVYACEVTHQGLSSPVTKSFNRGEC
On to B1, for which, in the test with human GPR20 [1], the “cell proliferation-suppressive effect by antibody internalization” value (shortened to “cell proliferation-suppressive effect”) is given as “exhibited a cell proliferation-suppressive effect by antibody internalization”.

B2: h046-Hwt/L6: human chimeric c046 heavy chain and humanized h046-L6 type light chain (antibody)
heavy: QVQLQQSGAELAKPGSSVKISCKASGYTFTSYYISWIKQTTGQGLKYIGFINPGSGHTNYNEKFKGKATLTVDKSSSTAFMQLSSLTPDDSAIYYCARGAGGFLRIITKFDYWGQGVMVTVSSASTKGPSVFPLAPSSKSTSGGTAALGCLVKDYFPEPVTVSWNSGALTSGVHTFPAVLQSSGLYSLSSVVTVPSSSLGTQTYICNVNHKPSNTKVDKRV[letters of human IgG1 Fc omitted]
light: DTQLTQSPSSLSASVGDRVTITCRASKSVSTYIHWYQQKPGKQPKLLIYSASDRESGVPSRFSGSGSGTDFTLTISSLQPEDFANYYCQQINELPYTFGQGTKVEIKRTVAAPSVFIFPPSDEQLKSGTASVVCLLNNFYPREAKVQWKVDNALQSGNSQESVTEQDSKDSTYSLSSTLTLSKADYEKHKVYACEVTHQGLSSPVTKSFNRGEC
As to B2, the “cell proliferation-suppressive effect” value with human GPR20 [1] is reported as “exhibited a cell proliferation-suppressive effect by antibody internalization”.

B3: antibody-drug conjugate (12): antibody-drug conjugate produced from h046-H10/L6; n 8.0 by common procedure F (conjugate)
heavy: QVQLQQSGAELAKPGSSVKVSCKASGYTFTSYYISWIKQTTGQGLKYIGFINPGSGHTNYNEKFKGKATLTVDKSSSTANMQLSSLTPDDSAIYYCARGAGGFLRIITKFDYWGQGVMVTVSSASTKGPSVFPLAPSSKSTSGGTAALGCLVKDYFPEPVTVSWNSGALTSGVHTFPAVLQSSGLYSLSSVVTVPSSSLGTQTYICNVNHKPSNTKVDKRV[letters of human IgG1 Fc omitted]
light: DTQLTQSPSSLSASVGDRVTITCRASKSVSTYIHWYQQKPGKQPKLLIYSASDRESGVPSRFSGSGSGTDFTLTISSLQPEDFANYYCQQINELPYTFGQGTKVEIKRTVAAPSVFIFPPSDEQLKSGTASVVCLLNNFYPREAKVQWKVDNALQSGNSQESVTEQDSKDSTYSLSSTLTLSKADYEKHKVYACEVTHQGLSSPVTKSFNRGEC
Consider B3, for which, in the test with GIST-T1/GPR20 cells (setting [3]), the tumor volume entry is “remarkably decreased tumor volume”.

B4: h046-H10/L6: humanized h046-H10 type heavy chain and humanized h046-L6 type light chain (antibody)
heavy: QVQLQQSGAELAKPGSSVKVSCKASGYTFTSYYISWIKQTTGQGLKYIGFINPGSGHTNYNEKFKGKATLTVDKSSSTANMQLSSLTPDDSAIYYCARGAGGFLRIITKFDYWGQGVMVTVSSASTKGPSVFPLAPSSKSTSGGTAALGCLVKDYFPEPVTVSWNSGALTSGVHTFPAVLQSSGLYSLSSVVTVPSSSLGTQTYICNVNHKPSNTKVDKRV[letters of human IgG1 Fc omitted]
light: DTQLTQSPSSLSASVGDRVTITCRASKSVSTYIHWYQQKPGKQPKLLIYSASDRESGVPSRFSGSGSGTDFTLTISSLQPEDFANYYCQQINELPYTFGQGTKVEIKRTVAAPSVFIFPPSDEQLKSGTASVVCLLNNFYPREAKVQWKVDNALQSGNSQESVTEQDSKDSTYSLSSTLTLSKADYEKHKVYACEVTHQGLSSPVTKSFNRGEC
Regarding B4, the “cell proliferation-suppressive effect” value with human GPR20 [1] is on record as “exhibited a cell proliferation-suppressive effect by antibody internalization”.

B5: antibody-drug conjugate (6): antibody-drug conjugate produced from h046-Hwt/L6; n 7.8 by common procedure F (conjugate)
heavy: QVQLQQSGAELAKPGSSVKISCKASGYTFTSYYISWIKQTTGQGLKYIGFINPGSGHTNYNEKFKGKATLTVDKSSSTAFMQLSSLTPDDSAIYYCARGAGGFLRIITKFDYWGQGVMVTVSSASTKGPSVFPLAPSSKSTSGGTAALGCLVKDYFPEPVTVSWNSGALTSGVHTFPAVLQSSGLYSLSSVVTVPSSSLGTQTYICNVNHKPSNTKVDKRV[letters of human IgG1 Fc omitted]
light: DTQLTQSPSSLSASVGDRVTITCRASKSVSTYIHWYQQKPGKQPKLLIYSASDRESGVPSRFSGSGSGTDFTLTISSLQPEDFANYYCQQINELPYTFGQGTKVEIKRTVAAPSVFIFPPSDEQLKSGTASVVCLLNNFYPREAKVQWKVDNALQSGNSQESVTEQDSKDSTYSLSSTLTLSKADYEKHKVYACEVTHQGLSSPVTKSFNRGEC
In the case of B5, the tumor volume result with GIST-T1/GPR20 cells (setting [3]) was “remarkably decreased tumor volume”; in the test on GIST-T1/GPR20 cells (10 mg/kg intravenously on Day 24, FIG. 30) it was “remarkably decreased tumor volume”.

B6: antibody-drug conjugate (3): antibody-drug conjugate produced from h046-H4b/L7; n 7.8 by common procedure F (conjugate)
heavy: QVQLVQSGAEVKKPGASVKVSCKASGYTFTSYYISWIRQAPGQGLKYMGFINPGSGHTNYNEKFKGRVTITADKSSSTATMELSSLRSEDTAVYYCARGAGGFLRIITKFDYWGQGTLVTVSSASTKGPSVFPLAPSSKSTSGGTAALGCLVKDYFPEPVTVSWNSGALTSGVHTFPAVLQSSGLYSLSSVVTVPSSSLGTQTYICNVNHKPSNTKVDKRV[letters of human IgG1 Fc omitted]
light: DTQLTQSPSSLSASVGDRVTITCRASKSVSTYIHWYQQKPGKQPKLLIYSAGNLESGVPSRFSGSGSGTDFTLTISSLQPEDFANYYCQQINELPYTFGQGTKVEIKRTVAAPSVFIFPPSDEQLKSGTASVVCLLNNFYPREAKVQWKVDNALQSGNSQESVTEQDSKDSTYSLSSTLTLSKADYEKHKVYACEVTHQGLSSPVTKSFNRGEC
For the molecule B6, the tumor volume entry in the test with GIST-T1/GPR20 cells (setting [3]) is recorded as “remarkably decreased tumor volume”.

B7: antibody-drug conjugate (5): antibody-drug conjugate produced from h046-H5b/L2; n 7.9 by common procedure F (conjugate)
heavy: QVQLVQSGAEVKKPGASVKVSCKASGYTFTSYYISWIRQAPGQGLKYMGFINPGSGHTNYNEKFKGRVTITADKSSSTANMELSSLRSEDTAVYYCARGAGGFLRIITKFDYWGQGTLVTVSSASTKGPSVFPLAPSSKSTSGGTAALGCLVKDYFPEPVTVSWNSGALTSGVHTFPAVLQSSGLYSLSSVVTVPSSSLGTQTYICNVNHKPSNTKVDKRV[letters of human IgG1 Fc omitted]
light: DIQMTQSPSSLSASVGDRVTITCRASKSVSTYIHWYQQKPGKQPKLLIYSASNLESGVPSRFSGSGSGTDFTLTISSLQPEDFATYYCQQINELPYTFGQGTKVEIKRTVAAPSVFIFPPSDEQLKSGTASVVCLLNNFYPREAKVQWKVDNALQSGNSQESVTEQDSKDSTYSLSSTLTLSKADYEKHKVYACEVTHQGLSSPVTKSFNRGEC
As for B7, the tumor volume entry with GIST-T1/GPR20 cells (setting [3]) is reported as “remarkably decreased tumor volume”.

B8: h046-H4e/L7: humanized h046-H4e type heavy chain and humanized h046-L7 type light chain (antibody)
heavy: EVQLVQSGAEVKKPGASVKVSCKASGYTFTSYYISWIRQAPGQGLKYMGFINPGSGHTNYNEKFKGRVTITADKSSSTATMELSSLRSEDTAVYYCARGAGGFLRIITKFDYWGQGTLVTVSSASTKGPSVFPLAPSSKSTSGGTAALGCLVKDYFPEPVTVSWNSGALTSGVHTFPAVLQSSGLYSLSSVVTVPSSSLGTQTYICNVNHKPSNTKVDKRV[letters of human IgG1 Fc omitted]
light: DTQLTQSPSSLSASVGDRVTITCRASKSVSTYIHWYQQKPGKQPKLLIYSAGNLESGVPSRFSGSGSGTDFTLTISSLQPEDFANYYCQQINELPYTFGQGTKVEIKRTVAAPSVFIFPPSDEQLKSGTASVVCLLNNFYPREAKVQWKVDNALQSGNSQESVTEQDSKDSTYSLSSTLTLSKADYEKHKVYACEVTHQGLSSPVTKSFNRGEC
As for B8, in the test with human GPR20 [2], the “amount of the antibody bound based on MFI” value was “increased in a concentration-dependent manner”.

The values are drawn from patent US11434289B2, “Anti-GPR20 antibody and anti-GPR20 antibody-drug conjugate” (DAIICHI SANKYO COMPANY, LIMITED, priority 2017, dated 2022).
